Reference: PubChem BioAssay AID493208 (National Center for Advancing Translational Sciences (NCATS), 2011)
Hit rate of the full screen: of about 44,000 compounds, about 340 (0.77%) were called active. Roughly 5% stayed inconclusive and do not appear here. Calls come from the whole dose curve; as a rule, active = well fitted inhibition curve with a large enough effect; inconclusive = small, poorly fitted or top-dose-only effect; inactive = flat fitted curve, though single readings scatter. Some of the results follow.

Assay: Acumen qHTS Assay for Inhibitors of the mTORC1 Signaling Pathway in MEF (Tsc2-/-, p53-/-) Cells: Sytravon;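 note: plate controls were DMSO for no effect and rapamycin for full effect; nearly all actives have a fitted effect of over 50% in size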
Settings: phospho-rpS6 immunofluorescence/PI, 24 h; series mostly up to 38.3 µM; activity change, negative = inhibition: at the top concentration
In short: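 Plate MEFs (Tsc2-/-, p53-/-, empty vector) in DMEM/10% FBS; after 24 h add compound, incubate 24 h at 37 degree Celsius; fix in PFA/TX-100, block, stain phospho-rpS6 and 10 uM PI; scan at 488 nm; report % positive cells.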

Activity change, negative = inhibition, inactive:
Cc1ccc(C)c(NC(=O)Cn2c(=O)ccc3cc(S(=O)(=O)N4CCCC4)ccc32)c1 0.585%
O=C(NCc1cccs1)c1ccc(CSc2nc3cccnc3n2Cc2ccccc2)cc1 -4.88%
Cc1ccccc1NC(=O)c1ccc(F)c(S(=O)(=O)N(C)C2CCCCC2)c1 0%
COc1ccc(NC(=O)c2sc3nc4c(cc3c2N)CCCCCC4)cc1OC -7.13%
CC1Cc2cc(S(=O)(=O)N(C)c3ccc(Br)cc3)ccc2N1C(=O)C1CC1 (stereo unspecified) -12.7%
Fc1ccc(Cc2cn3cc(-c4ccc(Cl)cc4)nc3s2)cc1 -1.84%
COc1ccc(NC(=O)C2CCCN(S(=O)(=O)c3cccs3)C2)cc1 (stereo unspecified) 5.71%
CCC1CCCCN1CCCNC(=O)c1cc2c(=O)n(CC)c3ccccc3c2s1 (stereo unspecified) -2.78%
CCN1CCN(C(c2ccccc2)c2c(O)cc(C)n(Cc3ccco3)c2=O)CC1 (stereo unspecified) 1.35%
COc1ccc(-c2nnc3c4ccccc4c(-c4ccccc4)nn23)cc1 7.21%
CCOc1ccc(CCNC(=O)c2cccc(-n3c(C)nc4cccnc43)c2)cc1 -1.85%
COC(=O)c1c(N)n(-c2ccc(OC)c(Cl)c2)c2nc3ccccc3nc12 2.48%
O=C(Nc1ccccc1F)c1ccc(-c2ccccc2)s1 0.811%
CCOC(=O)c1nnn(CC(=O)NC(=O)Nc2cccc(CC)c2)c1C(=O)OCC 5.98%
CCN(CC)C(=O)c1sc2c(c1C)c(=O)n(-c1ccc(Cl)c(Cl)c1)c(=O)n2CC(=O)Nc1cccc(OC)c1 3.26%
O=C(COc1ccc(Cl)cc1)NCCc1csc(-c2ccc(F)cc2)n1 1.28%
O=C(Nc1ccc(F)cc1Cl)C1Cc2ccccc2N1C(=O)c1ccccc1 (stereo unspecified) 0%
O=C(CCn1nc(-c2ccc(Cl)cc2)c2ccccc2c1=O)Nc1ccc(OC(F)(F)F)cc1 -9.88%
Cc1ccc(Cl)cc1N1CCN(C(=O)C2CCN(S(=O)(=O)c3ccc4c(c3)oc(=O)n4C)CC2)CC1 -18.6%
CC(=O)c1cccc(NC(=O)c2nc3ccccc3nc2N2CCCCC2)c1 -0.761%
COc1ccc(OC)c(CNC(=O)C2CCN(c3ncnc4c3nc3n4CCCCC3)CC2)c1 -4.02%
COC(=O)c1cc(S(=O)(=O)NCC2CCN(Cc3ccccc3F)CC2)c[nH]1 -0.273%
Cc1cc(C)c2c(n1)nn1c(C)c(CCC(=O)NCc3ccc(Cl)cc3)c(C)nc21 -3.9%
CN1C(=O)C2(c3ccccc31)N(c1ccc(F)c(Cl)c1)C(=O)CS2(=O)=O (stereo unspecified) 0%
O=C(Nc1cc(F)ccc1F)c1cc2nc(-c3ccco3)cc(C(F)(F)Cl)n2n1 -1.11%
CCC(=O)N1CCc2cc(S(=O)(=O)CCC(=O)N3CCN(c4ccc(C(C)=O)cc4)CC3)ccc21 2.36%
